From PMC6919601, “Identification of Plasmodium dipeptidyl aminopeptidase allosteric inhibitors by high throughput screening” (PLoS ONE, 2019)
Out of some 110,000 compounds screened, about 230 (0.21%) showed an effect of 50% or more. The list shows a part of the results.

target: DPAP1 (Plasmodium falciparum, UniProt Q8IIJ9); assay: primary screen, percent inhibition; read by cleavage of a fluorogenic dipeptide substrate; higher = more effect of the substance; parameters: species or system P. falciparum D10 trophozoite lysates; single well
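Also: 30 min substrate incubation versus DMSO and 10 µM JCP410 controls.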

Chain of DPAP1 (Q8IIJ9 whole entry, looked up): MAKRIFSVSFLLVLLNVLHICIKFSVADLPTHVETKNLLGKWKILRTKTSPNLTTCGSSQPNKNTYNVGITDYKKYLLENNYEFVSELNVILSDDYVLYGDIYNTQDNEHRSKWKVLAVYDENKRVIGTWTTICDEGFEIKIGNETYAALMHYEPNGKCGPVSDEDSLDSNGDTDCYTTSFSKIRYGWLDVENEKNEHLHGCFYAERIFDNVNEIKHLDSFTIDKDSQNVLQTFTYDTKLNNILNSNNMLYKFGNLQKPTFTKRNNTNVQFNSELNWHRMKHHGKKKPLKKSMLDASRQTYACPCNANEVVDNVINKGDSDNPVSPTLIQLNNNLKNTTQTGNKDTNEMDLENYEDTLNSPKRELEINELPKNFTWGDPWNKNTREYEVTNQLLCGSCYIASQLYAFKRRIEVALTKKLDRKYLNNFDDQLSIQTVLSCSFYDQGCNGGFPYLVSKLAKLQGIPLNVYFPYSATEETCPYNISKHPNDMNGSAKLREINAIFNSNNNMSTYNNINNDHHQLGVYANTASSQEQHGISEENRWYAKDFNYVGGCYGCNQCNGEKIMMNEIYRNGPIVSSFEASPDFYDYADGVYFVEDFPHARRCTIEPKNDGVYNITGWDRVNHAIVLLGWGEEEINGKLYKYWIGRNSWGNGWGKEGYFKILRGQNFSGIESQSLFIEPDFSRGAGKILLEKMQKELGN

| SMILES | % Inhibition @ 10 uM |
| --- | --- |
| O=C(NCCN1CCCC1)C1CCN(S(=O)(=O)N2CCC3(CC2)OCCO3)CC1 | -4.83% |
| COCCN(C(=O)c1nn(C)c2c1CSc1ccccc1-2)C1CCN(C(C)=O)CC1 | -1.72% |
| O=C(NCc1ccco1)c1cc2c(s1)-c1ccc(Cl)cc1S(=O)(=O)C2 | 0.953% |
| COc1ccc(CCNC(=O)c2cccc3ccccc23)cc1OC | -3.47% |
| CCOC(=O)c1[nH]c2ccc(C(C)=O)cc2c1-c1ccc(N)cc1 | -1.45% |
| Cc1nn(CC(=O)NCCCN2CCc3ccccc3C2)c(=O)c2cc3sccc3n12 | 4.95% |
| CCN(CC)C(=O)C1CCCN(C2CCN(CCc3ccccc3)CC2)C1 (stereo not drawn) | -1.5% |
| CCN(CC)CCCOc1c(C)cc(Cl)cc1Cl | 5.31% |
| CC1(C)CC(=O)c2cnc(NC(=O)C3CC3)nc2C1 | 3.48% |
| Cc1noc2ncnc(N3CCCC(C(=O)NCCCOC(C)C)C3)c12 (stereo not drawn) | 1.84% |
| Cc1cc(C)n(C(C)CC(=O)NCc2ccco2)n1 (stereo not drawn) | 1.26% |
| Cc1ccc(-n2c(S)nnc2-c2ccccc2O)c(C)c1 | 4.94% |
| COc1ccc(CCNC(=O)C(=O)NCc2ccc(Cl)cc2)cc1OC | -3.35% |
| CCOc1nc(-c2ccccc2)ccc1-c1noc(-c2ccncc2)n1 | 1.89% |
| CC(=O)Nc1ccc(NC(=O)c2ccc(Cn3cc(Cl)cn3)cc2)cc1 | -2.8% |
| O=C(c1ccccc1)c1nc2ccccc2[nH]1 | 2.97% |
| CCCN1CCN(C(=O)c2ccc3c(c2)sc2nc(-c4ccc(F)cc4)cn23)CC1 | 15.9% |
| CCCCNC(=O)Cn1nc(-c2ccc(Cl)cc2)ccc1=O | -1.79% |
| O=c1cccc2n1CC1CC2CN(c2nc(N3CCOCC3)nc(N3CCOCC3)n2)C1 (stereo not drawn) | -5.52% |
| CCc1nnc(NC(=O)C2CCN(c3cc(C)nc4c(-c5ccc(Cl)cc5)c(C)nn34)CC2)s1 | 3.19% |
| COc1ccc(CNC(=O)CSc2nc3ccc(N)cc3s2)cc1 | -4.26% |
| Cc1nnc2nc(SCC(=O)NCCC3=CCCCC3)n(-c3ccccc3Cl)c(N)c1-2 | -3.93% |
| O=C(O)CC12CC3CC(CC(S)(C3)C1)C2 | -4.01% |
| Fc1ccc(N2CCN(Cc3cc(F)ccc3F)CC2)cc1 | -3.57% |
| O=C(/C=C\c1ccc2c(c1)OCO2)Nc1c2c(nn1-c1ccc(Cl)cc1)CS(=O)(=O)C2 | 13.1% |

| SMILES | % Inhibition @ 10 uM |
| --- | --- |
| CCOc1cccc(C(=O)Nc2nnc(C3CCCCC3)s2)c1 | -5.7% |
| CCOc1ccccc1CNC(=O)CN1C(=O)CSc2nc(C)cc(C)c21 | 8.62% |
| COc1ccc(C2C(C(=O)c3ccc(C)cc3)=C(O)C(=O)N2c2ccccc2)cc1 (stereo not drawn) | -13.4% |
| Cc1ccc(-c2coc3c(C)c4oc(=O)c(CC(=O)O)c(C)c4cc23)cc1 | 2.21% |
| O=C(Nc1cc(Cl)cc(Cl)c1)c1cccc(C(=O)Nc2cc(Cl)cc(Cl)c2)c1 | 1.9% |
| CC(=O)Nc1c(O)[nH]c2ccc(C)cc12 | 1.52% |
| C/C(=C1/C(=O)N(c2nc3ccccc3s2)N=C1c1ccccc1)N1CCOCC1 | -4.76% |
| COc1ccc(C=C2C(=O)OC(C)(C(C)(C)C)OC2=O)c(OC)c1 (stereo not drawn) | -1.47% |
| COc1ccccc1NC(=O)c1c(NCc2ccc(C)o2)sc2c1CCC2 | -2.14% |
| CN1C2CCC1CC(OC(=O)CCN1CCCC1)C2 (stereo not drawn) | 0.986% |
| COCC1=Nc2ncnn2C(c2ccc(Cl)cc2Cl)/C1=C(/O)OC (stereo not drawn) | 0.0842% |
| C=CCOc1ccc2c(=O)c(-c3ccc(OC)c(OC)c3)c(C(F)(F)F)oc2c1 | 3.86% |
| Cn1c(=O)c2c(nc(N3CCOCC3)n2Cc2cccc(C(F)(F)F)c2)n(C)c1=O | 5.17% |
| O=C(Nc1nc(-c2ccc(F)cc2)cs1)c1cc2ccccc2oc1=O | 25.4% |
| CCC(=O)Nc1ccc(NC(=O)COc2ccc(C)cc2)cc1C | -3.97% |
| O=C(CCCN1C(=O)CSc2ncccc21)NCCCc1ccccc1 | -4.15% |
| Cc1cc(C(=O)NC(C)Cc2ccccc2)cc(C)c1N (stereo not drawn) | 1.57% |
| COc1ccccc1C1CC(=O)Nc2cc3c(cc21)OCO3 (stereo not drawn) | -1.89% |
| Cc1nc2nc(-c3ccccc3)c(-c3ccccc3)n2nc1C | 1.03% |
| COC(=O)c1ccc(-c2nc(COc3ccc(C(C)(C)C)cc3)no2)cc1 | 0.758% |
| Cc1cc(C)c2c(n1)nn1c(C)c(CCC(=O)O)c(C)nc21 | 5.53% |
| COc1ccc(-n2c(Cc3cccn3C)nnc2SCC(=O)NCC2CCCO2)cc1 (stereo not drawn) | -5.76% |
| Cc1ccc(Sc2ccc(C=O)o2)cc1 | 6.42% |
| CC1CC(C)(C)NCc2ccccc21 (stereo not drawn) | -0.759% |
| CCN(CC)C(=O)CN(c1cccc(OC)c1)S(=O)(=O)c1ccc(C)cc1 | -4.62% |

| SMILES | % Inhibition @ 10 uM |
| --- | --- |
| Cc1ccc(S(=O)(=O)c2nc(S(=O)(=O)Cc3ccccc3)sc2N(C)C)cc1 | 0.627% |
| O=C(NCCCc1ccccc1)C1c2ccccc2Oc2ccccc21 | 0.64% |
| COc1ccc(S(=O)(=O)N2CCC(C(N)=O)CC2)c(Cl)c1Cl | -2.28% |
| Cc1ccc(-n2c(C)cc(/C=C3\C(=N)N4N=C(S(C)(=O)=O)SC4=NC3=O)c2C)cc1Cl | -3.35% |
| COc1ccc(C(=O)Nc2ccc(C)cc2Br)cc1OC | 9.29% |
| O=C(Nc1ccc(CN2CCOCC2)cc1)c1cccc2ccccc12 | -4.72% |
| CC(C)(C)C1CCC(OC(=O)C2CC(=O)OC2c2ccccc2)CC1 (stereo not drawn) | 0.716% |
| COc1ccc(C2C=C(c3ccccc3)OC3=C2C(=O)CCC3)cc1 (stereo not drawn) | 2.22% |
| COc1cc2nc3c(O)n(CCN4CCC(Cc5ccccc5)CC4)cnc-3c2cc1OC | 3.24% |
| CCCNc1nc2ccc(C)cc2n2nnnc12 | -4.03% |
| CC1=C(C(=O)Nc2ncccc2C)C(c2ccc(F)cc2)C2=C(O)CC(C)(C)CC2=N1 (stereo not drawn) | 2.38% |
| CC(C)c1ccc(OCC(=O)N(Cc2ccco2)Cc2ccccc2F)cc1 | -2.84% |
| Cc1ccc(-c2nc(CS(=O)(=O)CC(=O)N(C)CCC#N)c(C)o2)cc1 | -0.138% |
| Cc1ccc(C)c(NC(=O)c2c(F)cccc2F)c1 | -4.31% |
| NC(=O)/C(=C\C=C\c1ccccc1)NC(=O)c1cccc(Br)c1 | -5.88% |
| CC(=O)Nc1ccc2nc(SCC(=O)Nc3ccc(Br)cc3Cl)sc2c1 | -6.37% |
| Cc1ccc(CN2c3ccsc3C(O)=C(/C=N/Cc3ccccc3Cl)S2(=O)=O)cc1 | -1.25% |
| CC1CCC(NC(=O)c2ccc(C/N=c3\c(O)c(O)\c3=N/C3CCCCC3)cc2)CC1 (stereo not drawn) | -2.47% |
| CCC(C)C(NC(=O)OCc1ccccc1)C(=O)O (stereo not drawn) | 2.79% |
| CCOC(=O)N1CCC2(CC1)OC(=O)C(C)=C2C(=O)NCC1CCCO1 (stereo not drawn) | 2.62% |
| Fc1ccc(CN2CCN(c3ccc(Cl)cc3)CC2)cc1Br | 3.16% |
| CCOc1ccc(NC2SC(=O)N(Cc3cccc(C(=O)O)c3)C2=O)cc1 (stereo not drawn) | -19.7% |
| COc1ccccc1C1=NOC(C(=O)NCc2cccnc2)C1 (stereo not drawn) | -3.45% |
| COCc1nc2ccccc2n1C(C)c1ccccc1 (stereo not drawn) | 1.12% |
| CC(C)(C)c1ccc(C(=O)N2CCCC(c3ccccc3)C2)cc1 (stereo not drawn) | -9.18% |

| SMILES | % Inhibition @ 10 uM |
| --- | --- |
| COc1cccc(C(=O)N2CCN(c3ccccc3OC)CC2)c1 | 8.72% |
| Cc1onc(-c2ccccc2)c1C(=O)Nc1ccc(Br)cc1F | -3.71% |
| Cc1ccc(C)c(Cc2c(C)nc(N3CCOCC3)nc2O)c1 | 4.31% |
| NC(=O)CSc1nc2sc3c(c2c(=O)n1-c1ccccc1)CCC3 | -2.64% |
| Cn1c2c(c(=O)n(C)c1=O)C(c1ccccc1[N+](=O)[O-])C(C#N)=C(N)O2 (stereo not drawn) | 1.7% |
| CC1=C(C#N)C(c2ccc(Cl)cc2)C2=C(N1)c1ccccc1S2(=O)=O (stereo not drawn) | 6.98% |
| COc1ccc2c(CNCCc3ccccc3OC)c(C(=O)O)n(Cc3ccccc3F)c2c1 | 0.0525% |
| O=C(O)c1ccc(S(=O)(=O)c2ccc(N3CCCCC3)cc2)cc1 | 0.847% |
| COCCCNC(=O)c1ccc(CS(=O)(=O)Cc2ccccc2Cl)o1 | 6.32% |
| COc1ccc(-c2nc(CS(=O)CC(=O)N3CCc4ccccc4C3)c(C)o2)cc1 (stereo not drawn) | -1.05% |
| Cc1nn(C)cc1CNC(=O)c1cc2nc3c(c(C(F)(F)F)n2n1)CCc1ccccc1-3 | -5% |
| CC(C)OC(=O)c1c(NC(=O)c2ccc(Cn3cc(Cl)cn3)o2)sc2c1CCCC2 | -2.9% |
| COCc1nc(O)c2c(n1)-c1ccccc1CC21CCCC1 | 1.4% |
| COc1cc(F)ccc1S(=O)(=O)N1CCOCC1 | 3.01% |
| CS(=O)(=O)CCC(C(=O)Nc1ccc(Cl)cn1)N1Cc2ccccc2C1=O (stereo not drawn) | -2.96% |
| CC(=O)C(C)n1c(CN(Cc2ccccc2)Cc2ccccc2)nc2c1c(=O)[nH]c(=O)n2C (stereo not drawn) | 0.44% |
| CC1Cc2nc(SCC(=O)NC3CCCCC3)n(CCc3ccccc3)c(=O)c2S1 (stereo not drawn) | -1.62% |
| COc1ccc(C(=O)N2CCC(C(=O)Nc3ccccc3Br)CC2)cc1OC | -4.97% |
| O=S(=O)(NCc1ccccc1Cl)c1cccc2nsnc12 | -1.2% |
| CCCc1cc(O)n2nc(NC(=O)C(C)C)nc2n1 | -1.53% |
| Cc1nc2cc(-c3ccc(Cl)cc3)nn2c(C)c1CCC(=O)NC(C)c1ccc2c(c1)OCCO2 (stereo not drawn) | -0.685% |
| Cn1nnnc1SCCCNCc1ccncc1 | -4.71% |
| Cc1cc(O)nc2sc(C(=O)c3ccc(Cl)c(Cl)c3)c(N)c12 | 4.54% |
| COc1ccc(Cl)cc1/C=C1\N=C(SC)SC1=O | 4.18% |
